B1: Caulobacter ParB omega fusion; a variant is named by its letters at X, in order, B8GW30 (parent)
chain: MESVVVGEPGMSEGRRGLGRGLSALLGEVDAAPAQAPGEQLGGSREAPIEILQRNPDQPRRTFREEDLEDLSNSIREKGVLQPILVRPSPDTAGEYQIVAGERAWRAAQRAGLKTVPIMVRELDDLAVLEIGIIENVQRADLNVLEEALSYKVLMEKFERTQENIAQTIGKSXSHVANXMRLLXLPDEVQSYLVSGELTAXHARAIAAAADPVALAKQIIEGGLSVRETEALARKAPNLSAGKSKGGRPPRVKDTDTQALESDLSSVLGLDVSIDHRGSTGTLTITYATLEQLDDLCNRLTRGI

Over roughly 81,000 sequences, “one-hybrid fitness for binding parS DNA” has its median near -0.17; the highest 2% begin near 0.51. The list shows a part of the results. Where only a bound is given, the exact number is not on record here.

Variants of B1 are the subject of this assay. Put plainly: one-hybrid fitness for binding parS DNA (scaled: cognate 1, non-cognate 0); higher = stronger binding. As to conditions: with parS DNA site. In short, it runs like this: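 In E. coli USO, a HIS3 reporter with its site placed 19 bp from the promoter was used to select Caulobacter ParB variants randomised at four specificity codons. Growth lasted 48 hours at 37°C on histidine-free M9 containing 0.1 mM IPTG and 5 mM 3-AT. Fitness was taken as the log change in variant-to-wild-type read ratio from Illumina sequencing of pre- and post-selection plasmids, rescaled between the non-cognate and cognate sites.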
Turning to DHRI, the “one-hybrid fitness for binding parS DNA” value is ≤ 0.2.

For the variant LHLI, the “one-hybrid fitness for binding parS DNA” value was ≤ 0.2.

Consider PGNA, for which the “one-hybrid fitness for binding parS DNA” value was ≤ 0.2.

As to DSRV, the “one-hybrid fitness for binding parS DNA” value was ≤ 0.2.

TRSY: the “one-hybrid fitness for binding parS DNA” value is ≤ 0.2.

Regarding YWRY, the “one-hybrid fitness for binding parS DNA” value is ≤ 0.2.

As to PPVM, the “one-hybrid fitness for binding parS DNA” value was ≤ 0.2.

Consider NTFR, for which the “one-hybrid fitness for binding parS DNA” value is ≤ 0.2.

Regarding GETI, the “one-hybrid fitness for binding parS DNA” value was ≤ 0.2.

PRTY: the “one-hybrid fitness for binding parS DNA” value is ≤ 0.2.

Turning to WSKY, the “one-hybrid fitness for binding parS DNA” value was ≤ 0.2.

For the variant MAYG, the “one-hybrid fitness for binding parS DNA” value was ≤ 0.2.

Consider ILEG, for which the “one-hybrid fitness for binding parS DNA” value is ≤ 0.2.

Take RYPY: the “one-hybrid fitness for binding parS DNA” value was ≤ 0.2.

For MWST, the “one-hybrid fitness for binding parS DNA” value was ≤ 0.2.

For PRNL, the “one-hybrid fitness for binding parS DNA” value is ≤ 0.2.

Take YEHT: the “one-hybrid fitness for binding parS DNA” value was ≤ 0.2.

For the variant NALT, the “one-hybrid fitness for binding parS DNA” value is ≤ 0.2.

Turning to HETC, the “one-hybrid fitness for binding parS DNA” value is ≤ 0.2.

Consider PWES, for which the “one-hybrid fitness for binding parS DNA” value was ≤ 0.2.

As for GDCS, the “one-hybrid fitness for binding parS DNA” value is ≤ 0.2.

Take PRDC: the “one-hybrid fitness for binding parS DNA” value is ≤ 0.2.

For LIDI, the “one-hybrid fitness for binding parS DNA” value is ≤ 0.2.

As to SAQA, the “one-hybrid fitness for binding parS DNA” value was ≤ 0.2.

Regarding PIMS, the “one-hybrid fitness for binding parS DNA” value is ≤ 0.2.

Take DKAG: the “one-hybrid fitness for binding parS DNA” value is ≤ 0.2.

Consider NYLG, for which the “one-hybrid fitness for binding parS DNA” value is ≤ 0.2.

As for EKQI, the “one-hybrid fitness for binding parS DNA” value was determined as 0.237.

With LHMN, the “one-hybrid fitness for binding parS DNA” value is ≤ 0.2.

As for TPTW, the “one-hybrid fitness for binding parS DNA” value is ≤ 0.2.

LVGG: the “one-hybrid fitness for binding parS DNA” value was ≤ 0.2.

YFSA: the “one-hybrid fitness for binding parS DNA” value was ≤ 0.2.

Turning to RMAK, the “one-hybrid fitness for binding parS DNA” value was ≤ 0.2.

With VCAR, the “one-hybrid fitness for binding parS DNA” value was ≤ 0.2.

As for TNHT, the “one-hybrid fitness for binding parS DNA” value was ≤ 0.2.

Regarding TILF, the “one-hybrid fitness for binding parS DNA” value was ≤ 0.2.

As to SQYQ, the “one-hybrid fitness for binding parS DNA” value was ≤ 0.2.

For CGPF, the “one-hybrid fitness for binding parS DNA” value was ≤ 0.2.

On to NDSG, for which the “one-hybrid fitness for binding parS DNA” value is ≤ 0.2.

As to RRRK, the “one-hybrid fitness for binding parS DNA” value is ≤ 0.2.

For WRET, the “one-hybrid fitness for binding parS DNA” value is ≤ 0.2.

Consider CLHH, for which the “one-hybrid fitness for binding parS DNA” value is ≤ 0.2.

Regarding SLCD, the “one-hybrid fitness for binding parS DNA” value was ≤ 0.2.

Consider LVFY, for which the “one-hybrid fitness for binding parS DNA” value was ≤ 0.2.

Turning to RNDI, the “one-hybrid fitness for binding parS DNA” value is ≤ 0.2.

For MTRV, the “one-hybrid fitness for binding parS DNA” value was ≤ 0.2.

Turning to SKVG, the “one-hybrid fitness for binding parS DNA” value is ≤ 0.2.

TCRR: the “one-hybrid fitness for binding parS DNA” value is ≤ 0.2.

Consider LPND, for which the “one-hybrid fitness for binding parS DNA” value was ≤ 0.2.

Take LSYH: the “one-hybrid fitness for binding parS DNA” value is ≤ 0.2.

Consider GMRG, for which the “one-hybrid fitness for binding parS DNA” value is ≤ 0.2.

On to VAQS, for which the “one-hybrid fitness for binding parS DNA” value was 0.225.

Consider WLNV, for which the “one-hybrid fitness for binding parS DNA” value is ≤ 0.2.

With TTPY, the “one-hybrid fitness for binding parS DNA” value was ≤ 0.2.

On to CEAS, for which the “one-hybrid fitness for binding parS DNA” value is ≤ 0.2.

For PRGI, the “one-hybrid fitness for binding parS DNA” value is ≤ 0.2.

As to AHYC, the “one-hybrid fitness for binding parS DNA” value was ≤ 0.2.

On to MMRR, for which the “one-hybrid fitness for binding parS DNA” value was ≤ 0.2.

PTAH: the “one-hybrid fitness for binding parS DNA” value was ≤ 0.2.

RFMH: the “one-hybrid fitness for binding parS DNA” value was ≤ 0.2.

As for KQNV, the “one-hybrid fitness for binding parS DNA” value was ≤ 0.2.

In the case of SHFV, the “one-hybrid fitness for binding parS DNA” value was ≤ 0.2.

Consider ATLK, for which the “one-hybrid fitness for binding parS DNA” value was ≤ 0.2.

As for SVVK, the “one-hybrid fitness for binding parS DNA” value is ≤ 0.2.

As for ETLC, the “one-hybrid fitness for binding parS DNA” value was ≤ 0.2.

TAAS: the “one-hybrid fitness for binding parS DNA” value is ≤ 0.2.

As to THQD, the “one-hybrid fitness for binding parS DNA” value was ≤ 0.2.

As to WKPS, the “one-hybrid fitness for binding parS DNA” value was ≤ 0.2.

Consider LYFG, for which the “one-hybrid fitness for binding parS DNA” value is ≤ 0.2.

As for KLVD, the “one-hybrid fitness for binding parS DNA” value is ≤ 0.2.

Consider HSGI, for which the “one-hybrid fitness for binding parS DNA” value was ≤ 0.2.

For RGIS, the “one-hybrid fitness for binding parS DNA” value came to 0.524.

As for DPKD, the “one-hybrid fitness for binding parS DNA” value is ≤ 0.2.

Consider DAPV, for which the “one-hybrid fitness for binding parS DNA” value was ≤ 0.2.

As to FDLS, the “one-hybrid fitness for binding parS DNA” value is ≤ 0.2.

Regarding CNFF, the “one-hybrid fitness for binding parS DNA” value was ≤ 0.2.

On to IHYV, for which the “one-hybrid fitness for binding parS DNA” value was ≤ 0.2.

As to RTVI, the “one-hybrid fitness for binding parS DNA” value is ≤ 0.2.

PPTK: the “one-hybrid fitness for binding parS DNA” value is ≤ 0.2.

Consider QFAR, for which the “one-hybrid fitness for binding parS DNA” value is ≤ 0.2.

As for CINV, the “one-hybrid fitness for binding parS DNA” value is ≤ 0.2.

As to LYSC, the “one-hybrid fitness for binding parS DNA” value is ≤ 0.2.

MPIR: the “one-hybrid fitness for binding parS DNA” value is ≤ 0.2.

With LAGI, the “one-hybrid fitness for binding parS DNA” value is ≤ 0.2.

As to RTRC, the “one-hybrid fitness for binding parS DNA” value was 0.826.

As to AAVR, the “one-hybrid fitness for binding parS DNA” value is ≤ 0.2.

Consider SGAC, for which the “one-hybrid fitness for binding parS DNA” value was ≤ 0.2.

With KVFY, the “one-hybrid fitness for binding parS DNA” value is ≤ 0.2.

LSYI: the “one-hybrid fitness for binding parS DNA” value is ≤ 0.2.

IPNF: the “one-hybrid fitness for binding parS DNA” value was ≤ 0.2.

With PDFC, the “one-hybrid fitness for binding parS DNA” value is ≤ 0.2.

Turning to LKLP, the “one-hybrid fitness for binding parS DNA” value is ≤ 0.2.

In the case of NIWR, the “one-hybrid fitness for binding parS DNA” value is ≤ 0.2.

Consider VLKW, for which the “one-hybrid fitness for binding parS DNA” value was ≤ 0.2.

Regarding HSWG, the “one-hybrid fitness for binding parS DNA” value is ≤ 0.2.

In the case of FKYG, the “one-hybrid fitness for binding parS DNA” value was ≤ 0.2.

On to IVHT, for which the “one-hybrid fitness for binding parS DNA” value is ≤ 0.2.

Turning to RQNA, the “one-hybrid fitness for binding parS DNA” value was found to be 0.613.

Take SICC: the “one-hybrid fitness for binding parS DNA” value was ≤ 0.2.

Turning to MTFN, the “one-hybrid fitness for binding parS DNA” value is ≤ 0.2.

Consider VREV, for which the “one-hybrid fitness for binding parS DNA” value is ≤ 0.2.

For FNLA, the “one-hybrid fitness for binding parS DNA” value is ≤ 0.2.

For the variant SWYS, the “one-hybrid fitness for binding parS DNA” value is ≤ 0.2.

Consider LLMS, for which the “one-hybrid fitness for binding parS DNA” value was ≤ 0.2.

FAYG: the “one-hybrid fitness for binding parS DNA” value was ≤ 0.2.

On to RLQQ, for which the “one-hybrid fitness for binding parS DNA” value was ≤ 0.2.

As for IYNG, the “one-hybrid fitness for binding parS DNA” value was ≤ 0.2.

With VRAT, the “one-hybrid fitness for binding parS DNA” value was ≤ 0.2.

As for WLSG, the “one-hybrid fitness for binding parS DNA” value is ≤ 0.2.

Turning to KMEF, the “one-hybrid fitness for binding parS DNA” value is ≤ 0.2.

As for ANVC, the “one-hybrid fitness for binding parS DNA” value was ≤ 0.2.

Regarding YVCR, the “one-hybrid fitness for binding parS DNA” value is ≤ 0.2.

Turning to RMLK, the “one-hybrid fitness for binding parS DNA” value was ≤ 0.2.

Take TTMK: the “one-hybrid fitness for binding parS DNA” value is ≤ 0.2.

On to LSAL, for which the “one-hybrid fitness for binding parS DNA” value was ≤ 0.2.

For YCQN, the “one-hybrid fitness for binding parS DNA” value is ≤ 0.2.

Turning to IFME, the “one-hybrid fitness for binding parS DNA” value was ≤ 0.2.

As for IPGK, the “one-hybrid fitness for binding parS DNA” value was ≤ 0.2.

On to QAAL, for which the “one-hybrid fitness for binding parS DNA” value was ≤ 0.2.

On to HAQG, for which the “one-hybrid fitness for binding parS DNA” value was ≤ 0.2.

With MNIL, the “one-hybrid fitness for binding parS DNA” value is ≤ 0.2.

For PTKH, the “one-hybrid fitness for binding parS DNA” value is ≤ 0.2.

Take MFSG: the “one-hybrid fitness for binding parS DNA” value was ≤ 0.2.

For KFVN, the “one-hybrid fitness for binding parS DNA” value was ≤ 0.2.

In the case of AKHP, the “one-hybrid fitness for binding parS DNA” value is ≤ 0.2.

Regarding LFAM, the “one-hybrid fitness for binding parS DNA” value was ≤ 0.2.

With NRLW, the “one-hybrid fitness for binding parS DNA” value was ≤ 0.2.

Take QTTC: the “one-hybrid fitness for binding parS DNA” value is ≤ 0.2.

As to YFSK, the “one-hybrid fitness for binding parS DNA” value was ≤ 0.2.

Turning to PIYD, the “one-hybrid fitness for binding parS DNA” value was ≤ 0.2.

Consider YDSR, for which the “one-hybrid fitness for binding parS DNA” value is ≤ 0.2.

As for TKHQ, the “one-hybrid fitness for binding parS DNA” value is ≤ 0.2.

Regarding IPCL, the “one-hybrid fitness for binding parS DNA” value was ≤ 0.2.

Consider LHKM, for which the “one-hybrid fitness for binding parS DNA” value is ≤ 0.2.

For the variant WLTR, the “one-hybrid fitness for binding parS DNA” value was ≤ 0.2.

Turning to CLCY, the “one-hybrid fitness for binding parS DNA” value was ≤ 0.2.

Take QYKF: the “one-hybrid fitness for binding parS DNA” value was ≤ 0.2.

Take EKGG: the “one-hybrid fitness for binding parS DNA” value is ≤ 0.2.

For the variant VHYM, the “one-hybrid fitness for binding parS DNA” value is ≤ 0.2.

Turning to KRAL, the “one-hybrid fitness for binding parS DNA” value was ≤ 0.2.

With IIDT, the “one-hybrid fitness for binding parS DNA” value is ≤ 0.2.

LQPW: the “one-hybrid fitness for binding parS DNA” value is ≤ 0.2.

AVVA: the “one-hybrid fitness for binding parS DNA” value is ≤ 0.2.

As to KCAD, the “one-hybrid fitness for binding parS DNA” value was ≤ 0.2.

With QMYF, the “one-hybrid fitness for binding parS DNA” value was ≤ 0.2.

As to PLVN, the “one-hybrid fitness for binding parS DNA” value was ≤ 0.2.

For the variant NVFD, the “one-hybrid fitness for binding parS DNA” value was ≤ 0.2.

For LELK, the “one-hybrid fitness for binding parS DNA” value is ≤ 0.2.

In the case of PTGF, the “one-hybrid fitness for binding parS DNA” value is ≤ 0.2.

Take QAEL: the “one-hybrid fitness for binding parS DNA” value is ≤ 0.2.

For AQRN, the “one-hybrid fitness for binding parS DNA” value is ≤ 0.2.

As to MMYS, the “one-hybrid fitness for binding parS DNA” value was ≤ 0.2.

As for YAHE, the “one-hybrid fitness for binding parS DNA” value was ≤ 0.2.

The values above are taken from a collection of fitness landscapes (doi:10.1016/j.celrep.2020.107928).
